Data taken from PMC11995724, “Antibiotic target discovery by integrated phenotypic and activity-based profiling of electrophilic fragments” (Cell chemical biology, 2025).
Screen size: about 3,200 compounds; about 110 (3.4%) showed an effect of 50% or more. This is one part of the list.

These compounds were tested on T1, V. cholerae SAD30. Conditions: relative growth, OD600, LB; 25 µM; inhibitor.
T1 construct: SAD30
Set-up: species or system S. aureus MSSA476 (TSB) or V. cholerae SAD30 (LB); 384-well bacterial growth screen at 25 uM, OD600 relative to DMSO control

Point of comparison: `CC(Cl)C(=O)NC(C)c1nnc2n1CCCC2` (stereo not drawn) [6-H13, 2-chloro-N-(1-{5H,6H,7H,8H-[1,2,4]triazolo[4,3-a]pyridin-3-yl}ethyl)propanamide], “% of control remaining” value 88.5771%. Against it:
- Cc1ccc(NC(=O)N2CCSSCC2)c(C)c1 [10-F11, N-(2,4-dimethylphenyl)-1,2,5-dithiazepane-5-carboxamide] — higher, 95.0711%
- C=CC(=O)Nc1ccc(CN2CCC(C)CC2)cc1 [1-D21, N-{4-[(4-methylpiperidin-1-yl)methyl]phenyl}prop-2-enamide] — higher, 93.2735%
- C=CC(=O)NCc1nnc(COC)[nH]1 [3-F10, N-{[5-(methoxymethyl)-4H-1,2,4-triazol-3-yl]methyl}prop-2-enamide] — higher, 95.0891%
- C=CCNC(=O)C(C#N)=Cc1cc(C)n(-c2ccc(C)cc2)c1C [8-C17, 2-cyano-3-[2,5-dimethyl-1-(4-methylphenyl)-1H-pyrrol-3-yl]-N-(prop-2-en-1-yl)prop-2-enamide] — lower, 61.9307%
- C=CC(=O)Nc1ccc(C2=NNC(=O)CO2)cc1 [3-L18, N-[4-(5-oxo-5,6-dihydro-4H-1,3,4-oxadiazin-2-yl)phenyl]prop-2-enamide] — higher, 93.6776%
- C=CC(=O)NCc1cc(-c2cccc(OC)c2)no1 [1-I11, N-{[3-(3-methoxyphenyl)-1,2-oxazol-5-yl]methyl}prop-2-enamide] — lower, 85.9492%
- C=CC(=O)N1CCCC(S(=O)(=O)NC)C1 (stereo not drawn) [3-D17, N-methyl-1-(prop-2-enoyl)piperidine-3-sulfonamide] — higher, 100.912%
- CC(Cl)C(=O)N(Cc1ccc(Cl)cc1)Cc1cnn(C)c1 (stereo not drawn) [5-P17, 2-chloro-N-[(4-chlorophenyl)methyl]-N-[(1-methyl-1H-pyrazol-4-yl)methyl]propanamide] — higher, 96.8372%
- C=CC(=O)NCc1ccc(-n2ccc(C)n2)nc1 [3-H16, N-{[6-(3-methyl-1H-pyrazol-1-yl)pyridin-3-yl]methyl}prop-2-enamide] — higher, 91.5604%
- N#CC(C(=O)Nc1ccc2c(c1)OCCO2)=C1N=C(N)c2ccccc21 [8-L03, 2-(3-amino-1H-isoindol-1-ylidene)-2-cyano-N-(2,3-dihydro-1,4-benzodioxin-6-yl)acetamide] — lower, 85.588%
- CCN(C(=O)CCl)C(c1ccccc1)c1ccc(F)cc1 (stereo not drawn) [6-J11, 2-chloro-N-ethyl-N-[(4-fluorophenyl)(phenyl)methyl]acetamide] — lower, 85.9987%
